Test results from publication PMC4336329 (PLoS ONE, 2015).
The campaign covered roughly 310,000 compounds. About 14,000 (4.5%) showed an effect of 50% or more. Effects have a minus sign here. This is one part of the list.

target: human ether-à-go-go-related gene (hERG) potassium channel (human, UniProt Q12809); experiment: primary screen, population patch clamp on CHO cells stably expressing hERG
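Note: peak tail current of the secondary pulse compared with the same well before compound.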

Chain of human ether-à-go-go-related gene (hERG) potassium channel (Q12809 whole entry, looked up): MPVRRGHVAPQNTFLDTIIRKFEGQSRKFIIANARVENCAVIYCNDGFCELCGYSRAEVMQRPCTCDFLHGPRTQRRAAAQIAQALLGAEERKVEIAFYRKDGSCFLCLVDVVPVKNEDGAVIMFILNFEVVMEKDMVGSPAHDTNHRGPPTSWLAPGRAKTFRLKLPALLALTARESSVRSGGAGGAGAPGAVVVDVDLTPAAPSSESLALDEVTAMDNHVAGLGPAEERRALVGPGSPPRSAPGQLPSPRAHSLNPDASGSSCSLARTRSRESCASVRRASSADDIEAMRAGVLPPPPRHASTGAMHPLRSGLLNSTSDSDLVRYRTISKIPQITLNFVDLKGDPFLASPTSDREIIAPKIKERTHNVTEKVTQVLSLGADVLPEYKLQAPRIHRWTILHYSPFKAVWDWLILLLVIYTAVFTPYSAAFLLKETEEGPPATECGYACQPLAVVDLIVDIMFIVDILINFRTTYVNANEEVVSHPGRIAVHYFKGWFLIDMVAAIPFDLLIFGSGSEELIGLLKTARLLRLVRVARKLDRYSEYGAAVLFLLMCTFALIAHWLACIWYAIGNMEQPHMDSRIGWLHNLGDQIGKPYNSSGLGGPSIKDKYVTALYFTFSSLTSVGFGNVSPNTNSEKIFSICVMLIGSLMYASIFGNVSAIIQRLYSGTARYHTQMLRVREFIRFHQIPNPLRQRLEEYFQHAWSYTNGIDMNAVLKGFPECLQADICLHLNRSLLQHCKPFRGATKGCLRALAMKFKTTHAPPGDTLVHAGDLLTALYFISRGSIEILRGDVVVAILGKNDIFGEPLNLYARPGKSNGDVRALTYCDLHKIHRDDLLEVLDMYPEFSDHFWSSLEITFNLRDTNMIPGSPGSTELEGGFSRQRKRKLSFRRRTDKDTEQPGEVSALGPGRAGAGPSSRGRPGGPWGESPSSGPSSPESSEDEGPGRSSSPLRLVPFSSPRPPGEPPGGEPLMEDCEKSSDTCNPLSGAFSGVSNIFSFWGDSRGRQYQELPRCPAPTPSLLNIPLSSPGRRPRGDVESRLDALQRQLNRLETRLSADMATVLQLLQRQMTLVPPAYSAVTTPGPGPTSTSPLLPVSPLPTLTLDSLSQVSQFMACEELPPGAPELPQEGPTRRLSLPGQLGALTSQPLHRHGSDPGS

| Structure (SMILES) | hERG current change (%, negative = inhibition) at 10uM [%] |
| --- | --- |
| C=CCC(C=C)[N+]1(CC(=O)OC)CCCCC1.[Br-] (stereo not shown) | 41.8 |
| COc1ccc(-n2c(CN3CCOCC3)nc3ccc([N+](=O)[O-])cc3c2=O)c(OC)c1 | -3.17 |
| Cc1ccc(C(=O)O)cc1NS(=O)(=O)c1ccc2c(c1)oc(=O)n2C | 13.1 |
| CCNc1nc(SC(C)C(=O)OC)nc(N2CCOCC2)n1 (stereo not shown) | 6.95 |
| Cn1c(CCC(N)=O)nnc1SCC(=O)Nc1ccccc1C(=O)NC1CC1 | -3.74 |
| CC(C)N(Cc1nc(-c2ccc3c(c2)OCO3)no1)Cc1nccn1C | -11.6 |
| CCOC(=O)C1=C(C)N=C2SCCC(=O)N2[C@@H]1/C=C/c1ccccc1 | -7.79 |
| Cc1nn(C(C)C(=O)NC2CC2)c(=O)c2nn(-c3ccccc3)c(C)c12 (stereo not shown) | 21.5 |
| COc1ccc(S(=O)(=O)N2CCCC2CNC(=O)C(=O)Nc2cccc(F)c2)cc1 (stereo not shown) | -16 |
| O=C(Nc1cccc(O)c1)c1cccc(NC(=O)c2cccs2)c1 | -15.5 |
| Cc1ccc2[nH]cc(CCNC(=O)c3ccc4c(c3)OCO4)c2c1 | 9.77 |
| O=C(COC(=O)/C=C/c1ccc([N+](=O)[O-])cc1)NCc1ccco1 | -6.83 |
| COc1ccccc1N1CCN(C(=O)CSc2nc3ccccc3nc2N2CCC(C)CC2)CC1 | 0.304 |
| CCOC(=O)C1CCN(C(=O)C2CCN(c3nnc(-n4cccc4)s3)CC2)CC1 | -62.5 |
| O=C(NCC(c1ccco1)N1CCc2ccccc2C1)c1ccccc1Cl (stereo not shown) | -17.7 |
| Cc1ccc(NC(=O)CSc2nnc(C3CC3)n2CC2CCCO2)cc1C (stereo not shown) | -24 |
| O=C(Nc1ccccc1)OC1CC2CC1C1CCCC21 (stereo not shown) | 14.3 |
| CCOC(=O)C1=NN(C(=O)COc2ccccc2)C(O)(c2ccc(Br)cc2)C1 (stereo not shown) | -27.9 |
| O=C(CN1CCN(c2ccccn2)CC1)Nc1ccccc1C(=O)Nc1ccccc1 | -42 |
| COc1cc(OC)c(OC)cc1CN1CCN(c2ccc(F)cc2)CC1 | -68.5 |
| Cc1ccc(NS(=O)(=O)c2c(C(=O)N3CCCC3)c(C)n(C)c2C)cc1 | 7.79 |
| C(=N\n1cnnc1)/c1cn(-c2cccs2)nc1-c1ccccc1 | -24.6 |

| Structure (SMILES) | hERG current change (%, negative = inhibition) at 10uM [%] |
| --- | --- |
| Cc1cc(OCC(=O)NCCN2CCOCC2)ccc1Br | -5 |
| CCOC(=O)N1CCN(C(=O)C(c2ccccc2)c2ccccc2)CC1 | 9.71 |
| CCN(C(=O)CN1CCN(c2ccccc2F)CC1)c1c(N)n(Cc2ccccc2)c(=O)[nH]c1=O | 6.68 |
| CCS(=O)(=O)c1ncc(CO)n1CCc1ccccc1 | 11 |
| CCOC(=O)c1oc2ccccc2c1NC(=O)c1ccc(Cl)s1 | 11.7 |
| CCCCCC(C)NC(=O)c1cc(S(=O)(=O)N2CCCCC2)ccc1N1CCOCC1 (stereo not shown) | -70.9 |
| CCOC(=O)C1(Cc2cccc(Cl)c2)CCCN(C(=O)CCC(=O)N(C)C)C1 (stereo not shown) | 7.24 |
| Cc1ccc(S(=O)(=O)Nc2ccc(Cl)cn2)cc1 | 12.2 |
| Cc1ccsc1C(=O)OCC(=O)NCc1ccc2c(c1)OCO2 | 15.4 |
| COc1ccc(N(CC(=O)Nc2ccc3c(c2)OCO3)S(C)(=O)=O)c(OC)c1 | 2.4 |
| COc1cccc(NC(=O)C(=O)NCC(c2ccco2)N2CCc3ccccc3C2)c1 (stereo not shown) | -9.29 |
| CCc1ccc(C2(C)SC(NC(C)=O)=NN2C(C)=O)cc1 (stereo not shown) | 4.03 |
| Cc1cccc(OCc2nnc(SCC(=O)Nc3ccc(C)c(Cl)c3)o2)c1 | 1.98 |
| COc1ccccc1NC(=O)C1C2CCCCC21 (stereo not shown) | -12.5 |
| Cc1cccc(NC(=O)CCNC(=O)c2ccc(Br)cc2)c1 | 12.7 |
| Nc1nc(-c2ccc3c(c2)NC(=O)CO3)cs1 | 15.5 |
| COc1nccc(NCc2ccccc2)c1C#N | 5.72 |
| Cc1onc(-c2c(Cl)cccc2Cl)c1C(=O)N=S(C)(=O)c1ccccc1 (stereo not shown) | 4.33 |
| CCN(C(=O)c1cc2c(=O)n3ccccc3nc2s1)C1CCCCC1 | -2.99 |
| CCN(CC)C(=O)N1CCN(Cc2ccc3c(c2)OCO3)CC1 | 10.1 |
| CN(C)c1ccc(/C=C/C(=O)c2ccc(O)cc2)cc1[N+](=O)[O-] | 2.72 |
